# Measurements published in the supplement of paper PMC7726561.
# Over roughly 1,400 sequences, “thermal melting temperature (Tm) of peptide-HLA complex” has its median near 60; the lowest 2% begin near 45. The list shows a part of the results.
# Target: HLA-B*07:02
# Test: thermal melting temperature (Tm) of peptide-HLA complex; higher = more thermostable pHLA complex
# Conditions: C1R-B*07:02
# 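Further: cell lysates heated 10 min at 37–73 °C, remaining pHLA pulled down with pan-class I antibody, peptides quantified by DIA-MS versus 37 °C, Tm where half the complex is lost.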
row,Sequence,thermal melting temperature [°C]
1,GAAVRIGSVL,59.4
2,LPSTRLGTL,61.1
3,SPIIRPLL,61.8
4,NVRPPNTAL,56.8
5,APRPYASSL,61
6,SPSLPNISL,64.4
7,TVRAVIATL,60.1
8,VPRPGTAL,59.1
9,KPNHTLVLL,59.2
10,KPRLETIEL,60.3
11,VPNVHGAL,57.4
12,AAYLRALSL,62.3
13,SPTKAVPAL,50.9
14,APRPGLLSL,64.4
15,VPYHGEVPVSL,59.6
16,TPAAVRELVL,60.8
17,HPAGPRTVF,59.1
18,WPNARISVM,64
19,AVRLITSSL,61.7
20,RPSGLHGDVSL,57.7
21,IIREPLTEL,51
22,QPAPAWTTF,62.1
23,TPSAGKAML,53.5

row,Sequence,thermal melting temperature [°C]
1,QPRDPSSTL,43.5
2,LPDLQRSKQAL,60.3
3,SPDLVRVQL,60.7
4,HPFPGPGL,56.2
5,RPTDKPLRL,57.9
6,KPMKSVLVV,56.2
7,KPLSGLLNAL,61.6
8,KPRPIIPML,60.7
9,RPASPSLQLL,62.2
10,RPQKPSLEF,61.8
11,SPAPRTAL,57.4
12,SPRSYQDFFE,46.4
13,YPGSDRIML,59.5
14,YPRFLSSPT,61
15,SPRMPVGDFF,59.9
16,QPRGSQAWVL,57.2
17,LPNIHPEL,59.1
18,IPRNPDGGPL,54.7
19,TPQSILRSTL,57.6
20,APRDAYWIAM,63.5
21,HPFPGPGLAI,60.5
22,LPRLTPPVL,62.1
23,APRKGTVWSL,61.5

row,Sequence,thermal melting temperature [°C]
1,APAGLPRETL,58.1
2,SPLPSRTGSL,50.1
3,VPRSASVLLL,61.9
4,RPDYRNITF,61.7
5,SPSPVLRLVL,59.6
6,MPSFSKIGGIL,62.2
7,QPHLVNIQF,41.6
8,APVGNQPPVL,58.6
9,WPKDVGIVAL,63.1
10,LVRPVFGEL,66
11,NPRNTEAVTL,56.8
12,KPYGPMSVGL,57.4
13,NPMVTGTSV,56.3
14,APRPFPEVSL,63.5
15,KPRNVVFVDM,59.4
16,IPMTGKPSL,61.3
17,RPSLLPLH,61.5
18,APRTPHFDVI,60.6
19,APKRPPSAF,62.6
20,GPFPGKFNEV,55
21,SPRAPVQVI,59.3
